# Source: PubChem BioAssay (NCATS)
# The other results are listed elsewhere or left out. The main result of the screen is listed elsewhere. These columns were measured beside it and carry no call. Words in brackets tell the shape of the fitted curve; partial curves, single points and poor fits give uncertain potencies.
# Test: qHTS drug screen for cell cycle checkpoint inhibitors in PARPi-resistant BRCA-mutant ovarian cancer cell lines. (AID 1963452)
# Conditions: PEO1/OlaR viability, CellTiter-Glo luminescence, 96 h
# In short: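 PEO1, PEO4 and PEO1/OlaR ovarian cancer cells, 600 per well, exposed 96 h at 37C to a dilution series. Viability read by CellTiter-Glo luminescence, normalized to DMSO and empty wells; activity summarized as Z-AUC.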
# [1] = measured here: PEO1 parental viability
# Tags tell the direction and shape of the fitted curve.
SMILES,AC50 [1],AC50 (measured here: PEO4 viability)
CC/C(=C(/c1ccc(O)cc1)c1ccc(OCCNC)cc1)c1ccccc1,"17.4 µM [falling, single point]","21.9 µM [falling, partial curve]"
C=C1CC[C@@H]2[C@](C)(CO)[C@H](O)CC[C@@]2(C)[C@@H]1C/C=C1/C(=O)OC[C@H]1O,"12.3 µM [falling, partial curve]","8.71 µM [falling, partial curve]"
O=C(CCCCCCNC(=O)c1cnc(N(c2ccccc2)c2ccccc2Cl)nc1)NO,"13.8 µM [falling, partial curve]","19.5 µM [falling, partial curve]"
COc1cc(N2CCN(C)CC2)ccc1Nc1ncc2c(n1)N(C)c1ccccc1C(=O)N2C,"19.5 µM [falling, partial curve]","6.92 µM [falling, partial curve]"
Cc1cc(OCCCc2c3n(c4c(-c5c(C)nn(C)c5C)c(Cl)ccc24)[C@H](C)CN(c2cn(C)c4ccc(C(=O)O)cc24)C3=O)cc(C)c1Cl,"13.8 µM [falling, partial curve]","11 µM [falling, partial curve]"
COc1cc([C@@H]2c3cc4c(cc3[C@@H](O[C@@H]3O[C@@H]5CO[C@@H](c6cccs6)O[C@H]5[C@H](O)[C@H]3O)[C@H]3COC(=O)[C@H]23)OCO4)cc(OC)c1O,"0.245 µM [falling, full curve]","0.347 µM [falling, full curve]"
CN(C)C/C=C/C(=O)Nc1ccc(C(=O)Nc2cccc(Nc3ncc(Cl)c(-c4c[nH]c5ccccc45)n3)c2)cc1,"0.0245 µM [falling, full curve]","0.0436 µM [falling, full curve]"
COc1cc(N2CCC(N3CCN(C)CC3)CC2)ccc1Nc1ncc(Cl)c(Nc2ccccc2P(C)(C)=O)n1,"0.549 µM [falling, full curve]","0.49 µM [falling, full curve]"
C=CC(=O)Nc1cccc(Oc2nc(Nc3ccc(N4CCN(C)CC4)cc3)nc3ccsc23)c1,"12.3 µM [falling, partial curve]","9.77 µM [falling, partial curve]"
Nc1nc(Cl)nc2c1ncn2[C@@H]1O[C@H](CO)[C@@H](O)[C@@H]1F,"0.245 µM [falling, full curve]","0.347 µM [falling, full curve]"
CC(C)(O)CNc1ncc(-c2ccnc(Nc3ccncc3)n2)c(CC2CC2)n1,"15.5 µM [falling, partial curve]","24.5 µM [falling, single point]"
O=S(=O)(Nc1ccc(-c2cccnc2)c2cccnc12)c1cccc(C(F)(F)F)c1,"3.89 µM [falling, full curve]","6.16 µM [falling, partial curve]"
Nc1ccn([C@@H]2C(F)=C(CO)[C@@H](O)[C@H]2O)c(=O)n1,"3.47 µM [falling, partial curve]","6.92 µM [falling, partial curve]"
CON(C)C(=O)N1N=C(c2cc(F)ccc2F)S[C@@]1(CCCN)c1ccccc1,"0.0098 µM [falling, full curve]","0.0087 µM [falling, full curve]"
C[C@@H]1C[C@H](N)C[C@H](c2ccncc2NC(=O)c2ccc(F)c(-c3c(F)cccc3F)n2)C1,"13.8 µM [falling, partial curve]","21.9 µM [falling, partial curve]"
O=C(/C=C/c1ccc(Cl)cc1)N1CCC2(CC1)CN(Cc1ccc(Cl)c(Cl)c1)C(=O)O2,"17.4 µM [falling, partial curve]","13.8 µM [falling, partial curve]"
NC(=O)c1cccc2c(NC(CN3CCC3)c3ccc(Cl)c(C(F)(F)F)c3)ncnc12 (stereo not drawn),"11 µM [falling, partial curve]","11 µM [falling, partial curve]"
CN1CCCN(C(=O)c2cccc(-c3ccc(/C=C4/C(=O)Nc5ccc(Cl)cc54)o3)c2)CC1,"1.74 µM [falling, partial curve]","0.123 µM [falling, full curve]"
CN1CCN(c2ccc(Nc3ncc4cc(C#N)c(=O)n(C5CCCC5)c4n3)cc2)CC1,"7.76 µM [falling, partial curve, poor fit]","12.3 µM [falling, partial curve, poor fit]"
O=C(Nc1ccnc(NC(=O)C2CC2)c1)c1c(Cl)cccc1Cl,"13.8 µM [falling, partial curve]","17.4 µM [falling, partial curve]"

SMILES,AC50 [1],AC50 (measured here: PEO4 viability)
C[C@H]1COCCN1c1cc(C2(S(=O)(=O)C3CC3)CC2)nc(-c2ccc(NC(=S)NCCO)cc2)n1,"0.195 µM [falling, full curve]","0.138 µM [falling, full curve]"
Cc1ncc(NC(=O)c2cccc(C(F)(F)F)c2)cc1-c1cnc(OC2CCOCC2)c(N2CCOCC2)c1,"6.92 µM [falling, partial curve]","12.3 µM [falling, partial curve]"
CC(C)(O)CS(=O)(=O)Nc1ccc2c(c1)CCN(C(=O)COc1cccnc1)C2,"0.0195 µM [falling, full curve]","0.0155 µM [falling, full curve]"
CN1CCN(Cc2ccc(Nc3ncc(Cl)c(Nc4ccccc4S(=O)(=O)N(C)C)n3)cc2)CC1,"0.178 µM [falling, full curve]","0.071 µM [falling, full curve]"
CNCc1ccc(C)c(NC(=O)c2ccc(Nc3nc(-c4ccccc4)c4ccccc4n3)cc2)c1,"19.5 µM [falling, single point]","21.9 µM [falling, single point]"
O=c1sn(-c2cccc3ccccc23)c(=O)n1Cc1ccccc1,"24.5 µM [falling, single point]","21.9 µM [falling, single point]"
C[C@@H](Nc1cc(F)cc(F)c1)c1cc(C(=O)N(C)C)cc2c(=O)cc(N3CCOCC3)oc12,"13.8 µM [falling, partial curve, poor fit]","12.3 µM [falling, partial curve, poor fit]"
C=C1C[C@@H]2CC[C@@]34C[C@H]5O[C@H]6[C@@H](O3)[C@H]3O[C@H](CC[C@@H]3O[C@H]6[C@H]5O4)CC(=O)C[C@@H]3[C@@H](OC)[C@@H](C[C@H](O)CN)O[C@H]3C[C@H]3O[C@@H](CC[C@@H]1O2)C[C@@H](C)C3=C,"0.0018 µM [falling, full curve]","0.0018 µM [falling, full curve]"
O=C(/C=C/c1cccnc1)NCCCCC1CCN(C(=O)c2ccccc2)CC1,"0.011 µM [falling, full curve]","0.0087 µM [falling, full curve]"
CC(C)[C@@H](CS(=O)(=O)C(C)C)N1C(=O)[C@@](C)(CC(=O)O)C[C@H](c2cccc(Cl)c2)[C@H]1c1ccc(Cl)cc1,"12.3 µM [falling, partial curve, poor fit]","15.5 µM [falling, single point]"
CN1C(=O)c2sccc2N(C)c2nc(Nc3ccc(S(N)(=O)=O)cc3)ncc21,"7.76 µM [falling, partial curve, poor fit]","1.55 µM [falling, full curve]"
COC(=O)C1=C(C)NC(C)=C(C(=O)OCCN2CCN(C(c3ccccc3)c3ccccc3)CC2)C1c1cccc([N+](=O)[O-])c1 (stereo not drawn),"13.8 µM [falling, partial curve, poor fit]","27.5 µM [falling, single point]"
COc1cc(N2CCN(C(C)=O)CC2)ccc1Nc1ncc(Cl)c(Nc2ccc(N3CCN(C(C)=O)CC3)cc2OC)n1,"17.4 µM [falling, partial curve, poor fit]","13.8 µM [falling, partial curve]"
CCc1cc(C(N)=O)ccc1-n1nc(C(C)C)c2c(-n3cnc(-c4cnn(C)c4)c3)ccnc21,"1.74 µM [falling, full curve]","3.09 µM [falling, partial curve]"
CSc1ccc(C(=O)/C=C/c2cc(C)c(OC(C)(C)C(=O)O)c(C)c2)cc1,"39.8 µM [falling, partial curve]","31.6 µM [falling, single point]"
C=CC(=O)N1CCC(C2CCNc3c(C(N)=O)c(-c4ccc(Oc5ccccc5)cc4)nn32)CC1 (stereo not drawn),"15.5 µM [falling, single point]","9.77 µM [falling, partial curve, poor fit]"
CCC(CC)C(c1ccc(Nc2nc3ccccc3s2)cc1)n1cncn1 (stereo not drawn),"15.5 µM [falling, partial curve]","27.5 µM [falling, single point]"
CC(=O)NCC(=O)N1[C@@H]2CC[C@H]1c1ccc(Nc3ncc(C(F)(F)F)c(NC4CCC4)n3)cc12,"8.71 µM [falling, partial curve]","7.76 µM [falling, partial curve]"
Nc1ccc(/C=C/C(=O)NCc2cc3cc(-c4ccc(C(=O)N5CCC(F)(F)CC5)cc4)cc(-c4ccc(F)cc4)c3o2)cn1,"0.49 µM [falling, full curve]","0.871 µM [falling, full curve]"
